# Assay results reported in the supplement of paper PMC8728848.
# Some of the results follow.
# B1: LBL-152 (Laetiporus bicolor), B0D650 (protein)
# chain: MSNEYNPPLGIAFRLCGLASDRVLFSRVSPSPEVFHHPKSEVYPDQWFVAIPGSGQNAGCYAIKSKNTGKVLFSRMSPDPRVGHIDGDGKYPDNWFKFEAGSGKYAGYFRLRAVASDTVLVSRTSTGTDTQVINYPATSAKYDDQYFTILFDHHHHHH
# Tests used:
# Assay in all cases: glycan array binding signal (z-score within array); higher = stronger binding
# Settings in all cases: glycan notation: IUPAC condensed, linker removed
# Gal(a1-6)Glc = biological target: Gal(a1-6)Glc
# Outline: (§1)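 The binding signal is a Z-score computed within each array. Data were drawn from 3228 arrays in the Consortium for Functional Glycomics database, restricted to those with a known protein sequence. Scores were averaged over arrays of the same protein sequence at different concentrations or buffers, and over linkers, and negative values can be taken as non-binding.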
# Gal(b1-2)Gal = biological target: Gal(b1-2)Gal
# Outline: as §1
# Gal(b1-3)Gal = biological target: Gal(b1-3)Gal
# Outline: as §1
# Gal(b1-3)Gal(b1-4)GlcNAc = biological target: Gal(b1-3)Gal(b1-4)GlcNAc
# Outline: as §1
# Gal(b1-3)GalNAc = biological target: Gal(b1-3)GalNAc
# Outline: as §1
# [1] = biological target: Gal(b1-3)GalNAc(a1-3)[Fuc(a1-2)]Gal(b1-4)Glc
# Outline: as §1
# [2] = biological target: Gal(b1-3)GalNAc(a1-3)[Fuc(a1-2)]Gal(b1-4)GlcNAc
# Outline: as §1
# Gal(b1-3)GalNAc(b1-3)Gal = biological target: Gal(b1-3)GalNAc(b1-3)Gal
# Outline: as §1
# [3] = biological target: Gal(b1-3)GalNAc(b1-3)Gal(a1-4)Gal(b1-4)Glc
# Outline: as §1
# [4] = biological target: Gal(b1-3)GalNAc(b1-4)Gal(b1-4)Glc
# Outline: as §1
# [5] = biological target: Gal(b1-3)GalNAc(b1-4)[Neu5Ac(a2-3)]Gal(b1-4)Glc
# Outline: as §1
# Gal(b1-3)GlcNAc = biological target: Gal(b1-3)GlcNAc
# Outline: as §1
# [6] = biological target: Gal(b1-3)GlcNAc(a1-3)Gal(b1-4)GlcNAc
# Outline: as §1
# [7] = biological target: Gal(b1-3)GlcNAc(a1-6)Gal(b1-4)GlcNAc
# Outline: as §1
# Gal(b1-3)GlcNAc(b1-2)Man = biological target: Gal(b1-3)GlcNAc(b1-2)Man
# Outline: as §1
# [8] = biological target: Gal(b1-3)GlcNAc(b1-2)Man(a1-3)[Gal(b1-3)GlcNAc(b1-2)Man(a1-6)]Man(b1-4)GlcNAc(b1-4)GlcNAc
# Outline: as §1
# [9] = biological target: Gal(b1-3)GlcNAc(b1-2)Man(a1-3)[Gal(b1-3)GlcNAc(b1-2)Man(a1-6)]Man(b1-4)GlcNAc(b1-4)[Fuc(a1-6)]GlcNAc
# Outline: as §1
# [10] = biological target: Gal(b1-3)GlcNAc(b1-2)Man(a1-3)[GlcNAc(b1-4)][Gal(b1-3)GlcNAc(b1-2)Man(a1-6)]Man(b1-4)GlcNAc(b1-4)GlcNAc
# Outline: as §1
# [11] = biological target: Gal(b1-3)GlcNAc(b1-2)[Gal(b1-3)GlcNAc(b1-6)]Man(a1-6)[Gal(b1-3)GlcNAc(b1-2)Man(a1-3)]Man(b1-4)GlcNAc(b1-4)GlcNAc
# Outline: as §1
# [12] = biological target: Gal(b1-3)GlcNAc(b1-3)Gal(b1-3)GlcNAc
# Outline: as §1
# [13] = biological target: Gal(b1-3)GlcNAc(b1-3)Gal(b1-4)Glc
# Outline: as §1
# [14] = biological target: Gal(b1-3)GlcNAc(b1-3)Gal(b1-4)GlcNAc
# Outline: as §1
# [15] = biological target: Gal(b1-3)GlcNAc(b1-3)Gal(b1-4)GlcNAc(b1-2)Man(a1-3)[Gal(b1-3)GlcNAc(b1-3)Gal(b1-4)GlcNAc(b1-2)Man(a1-6)]Man(b1-4)GlcNAc(b1-4)GlcNAc
# Outline: as §1
# [16] = biological target: Gal(b1-3)GlcNAc(b1-3)Gal(b1-4)GlcNAc(b1-2)[Gal(b1-3)GlcNAc(b1-3)Gal(b1-4)GlcNAc(b1-6)]Man(a1-6)[Gal(b1-3)GlcNAc(b1-3)Gal(b1-4)GlcNAc(b1-2)Man(a1-3)]Man(b1-4)GlcNAc(b1-4)[Fuc(a1-6)]GlcNAc
# Outline: as §1
# [17] = biological target: Gal(b1-3)GlcNAc(b1-3)Gal(b1-4)GlcNAc(b1-3)Gal(b1-4)GlcNAc(b1-2)[Gal(b1-3)GlcNAc(b1-3)Gal(b1-4)GlcNAc(b1-3)Gal(b1-4)GlcNAc(b1-6)]Man(a1-6)[Gal(b1-3)GlcNAc(b1-3)Gal(b1-4)GlcNAc(b1-3)Gal(b1-4)GlcNAc(b1-2)Man(a1-3)]Man(b1-4)GlcNAc(b1-4)[Fuc(a1-6)]GlcNAc
# Outline: as §1
# [18] = biological target: Gal(b1-3)GlcNAc(b1-3)Gal(b1-4)GlcNAc(b1-6)[Gal(b1-3)GlcNAc(b1-3)]Gal(b1-4)Glc
# Outline: as §1
# [19] = biological target: Gal(b1-3)GlcNAc(b1-3)Gal(b1-4)[Fuc(a1-3)]GlcNAc
# Outline: as §1
# [20] = biological target: Gal(b1-3)GlcNAc(b1-3)Gal(b1-4)[Fuc(a1-3)]GlcNAc(b1-6)[Gal(b1-3)GlcNAc(b1-3)]Gal(b1-4)Glc
# Outline: as §1
# [21] = biological target: Gal(b1-3)GlcNAc(b1-3)GalNAc
# Outline: as §1
# [22] = biological target: Gal(b1-3)GlcNAc(b1-6)Gal(b1-4)GlcNAc
# Outline: as §1
# [23] = biological target: Gal(b1-3)GlcNAc(b1-6)GalNAc
# Outline: as §1
# [24] = biological target: Gal(b1-3)GlcNAc(b1-6)[Gal(b1-3)]GalNAc
# Outline: as §1
# Gal(b1-3)GlcNAc6S = biological target: Gal(b1-3)GlcNAc6S
# Outline: as §1
# [25] = biological target: Gal(b1-3)[Fuc(a1-4)]GlcNAc
# Outline: as §1
# [26] = biological target: Gal(b1-3)[Fuc(a1-4)]GlcNAc(b1-2)Man
# Outline: as §1
# [27] = biological target: Gal(b1-3)[Fuc(a1-4)]GlcNAc(b1-2)Man(a1-3)[Gal(b1-3)[Fuc(a1-4)]GlcNAc(b1-2)Man(a1-6)]Man(b1-4)GlcNAc(b1-4)[Fuc(a1-6)]GlcNAc
# Outline: as §1
# [28] = biological target: Gal(b1-3)[Fuc(a1-4)]GlcNAc(b1-3)Gal(b1-3)[Fuc(a1-4)]GlcNAc
# Outline: as §1
# [29] = biological target: Gal(b1-3)[Fuc(a1-4)]GlcNAc(b1-3)Gal(b1-4)[Fuc(a1-3)]GlcNAc
# Outline: as §1
# [30] = biological target: Gal(b1-3)[Fuc(a1-4)]GlcNAc(b1-6)GalNAc
# Outline: as §1
# [31] = biological target: Gal(b1-3)[GlcNAc(b1-6)]GalNAc
# Outline: as §1
# [32] = biological target: Gal(b1-3)[Neu5Ac(a2-6)]GalNAc
# Outline: as §1
# [33] = biological target: Gal(b1-3)[Neu5Ac(a2-6)]GlcNAc(b1-4)Gal(b1-4)Glc
# Outline: as §1
# [34] = biological target: Gal(b1-3)[Neu5Ac(b2-6)]GalNAc
# Outline: as §1
# Gal(b1-4)Gal = biological target: Gal(b1-4)Gal
# Outline: as §1
# [35] = biological target: Gal(b1-4)GalNAc(a1-3)[Fuc(a1-2)]Gal(b1-4)GlcNAc
# Outline: as §1
binder,measurement,setting,value
B1,glycan array binding signal (z-score),Gal(a1-6)Glc,-0.163
same,glycan array binding signal (z-score),Gal(b1-2)Gal,-0.147
same,glycan array binding signal (z-score),Gal(b1-3)Gal,-0.153
same,glycan array binding signal (z-score),Gal(b1-3)Gal(b1-4)GlcNAc,-0.158
same,glycan array binding signal (z-score),Gal(b1-3)GalNAc,-0.156
same,glycan array binding signal (z-score),[1],-0.149
same,glycan array binding signal (z-score),[2],-0.153
same,glycan array binding signal (z-score),Gal(b1-3)GalNAc(b1-3)Gal,-0.16
same,glycan array binding signal (z-score),[3],-0.158
same,glycan array binding signal (z-score),[4],-0.143
same,glycan array binding signal (z-score),[5],-0.146
same,glycan array binding signal (z-score),Gal(b1-3)GlcNAc,-0.147
same,glycan array binding signal (z-score),[6],-0.14
same,glycan array binding signal (z-score),[7],-0.157
same,glycan array binding signal (z-score),Gal(b1-3)GlcNAc(b1-2)Man,-0.152
same,glycan array binding signal (z-score),[8],-0.154
same,glycan array binding signal (z-score),[9],-0.153
same,glycan array binding signal (z-score),[10],-0.154
same,glycan array binding signal (z-score),[11],-0.148
same,glycan array binding signal (z-score),[12],-0.154
same,glycan array binding signal (z-score),[13],-0.155
same,glycan array binding signal (z-score),[14],-0.155
same,glycan array binding signal (z-score),[15],-0.136
same,glycan array binding signal (z-score),[16],-0.14
same,glycan array binding signal (z-score),[17],-0.044
same,glycan array binding signal (z-score),[18],-0.15
same,glycan array binding signal (z-score),[19],-0.149
same,glycan array binding signal (z-score),[20],-0.155
same,glycan array binding signal (z-score),[21],-0.152
same,glycan array binding signal (z-score),[22],-0.156
same,glycan array binding signal (z-score),[23],-0.151
same,glycan array binding signal (z-score),[24],-0.155
same,glycan array binding signal (z-score),Gal(b1-3)GlcNAc6S,-0.151
same,glycan array binding signal (z-score),[25],-0.152
same,glycan array binding signal (z-score),[26],-0.159
same,glycan array binding signal (z-score),[27],-0.15
same,glycan array binding signal (z-score),[28],-0.16
same,glycan array binding signal (z-score),[29],-0.154
same,glycan array binding signal (z-score),[30],-0.157
same,glycan array binding signal (z-score),[31],-0.147
same,glycan array binding signal (z-score),[32],-0.156
same,glycan array binding signal (z-score),[33],-0.155
same,glycan array binding signal (z-score),[34],-0.154
same,glycan array binding signal (z-score),Gal(b1-4)Gal,-0.161
same,glycan array binding signal (z-score),[35],-0.163
